Laboratory results reported in publication PMC6919601, “Identification of Plasmodium dipeptidyl aminopeptidase allosteric inhibitors by high throughput screening” (PLoS ONE, 2019).
“And” between values parts separate entries of the source, which are not always exact repeats. Equal entries are not always repeated. Hit rate of the full screen: of about 110,000 compounds, about 230 (0.21%) showed an effect of 50% or more. Some of the results follow.

Biological target: DPAP1 (Plasmodium falciparum, UniProt Q8IIJ9)
Sequence (Q8IIJ9 whole entry, looked up): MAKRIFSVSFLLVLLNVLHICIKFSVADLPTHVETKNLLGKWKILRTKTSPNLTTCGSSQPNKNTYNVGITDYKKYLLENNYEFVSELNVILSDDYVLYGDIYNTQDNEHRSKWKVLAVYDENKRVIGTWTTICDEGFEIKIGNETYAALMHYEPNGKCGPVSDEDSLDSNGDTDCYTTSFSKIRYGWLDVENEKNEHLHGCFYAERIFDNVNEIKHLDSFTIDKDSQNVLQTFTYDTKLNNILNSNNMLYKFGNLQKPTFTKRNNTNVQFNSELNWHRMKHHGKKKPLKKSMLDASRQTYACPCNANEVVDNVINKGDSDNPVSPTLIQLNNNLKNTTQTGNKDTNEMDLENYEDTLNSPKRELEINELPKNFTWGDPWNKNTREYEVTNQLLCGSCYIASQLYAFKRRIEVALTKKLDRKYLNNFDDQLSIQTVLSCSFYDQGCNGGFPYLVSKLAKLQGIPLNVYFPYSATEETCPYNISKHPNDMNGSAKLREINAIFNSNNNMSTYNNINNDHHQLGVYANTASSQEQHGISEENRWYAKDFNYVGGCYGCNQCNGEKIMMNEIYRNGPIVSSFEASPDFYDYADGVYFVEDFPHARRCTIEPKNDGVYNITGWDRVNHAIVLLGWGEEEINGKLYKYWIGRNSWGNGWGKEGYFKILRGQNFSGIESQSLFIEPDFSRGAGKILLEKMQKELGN
Assay: primary screen, percent inhibition; read by cleavage of a fluorogenic dipeptide substrate; higher = more effect of the substance
Parameters: species or system P. falciparum D10 trophozoite lysates; single well
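Also: 30 min substrate incubation versus DMSO and 10 µM JCP410 controls.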

SMILES	% Inhibition @ 10 uM
CC(=O)Nc1ccc(N/C=C(/C#N)c2nc(-c3ccc4c(c3)OCO4)cs2)cc1	-1.64%
CCCCOc1ccccc1C1C(C(=O)OCC)=CN(C(C)C)C=C1C(=O)OCC	-1.48%
CCN(CC)C(=O)CSc1nc2nnc(C)c-2c(N)n1-c1ccc(Cl)c(C)c1	8.71%
COc1cc2c(cc1OC)C(c1ccc(Br)cc1)NCC2 (stereo not shown)	1.66% and 7.66%
COc1cccc(/C=C(\C#N)C(=O)NCCc2ccccc2Cl)c1OC	-2.21%
COc1ccc(-c2noc(-c3nnn(-c4cc(Cl)ccc4C)c3N)n2)cc1	-1.04%
c1ccc(CSc2nc3ccccc3n2Cc2ccccn2)cc1	1.31%
CN(C)CCn1c(NC(=O)c2ccc(Cl)cc2)nc2ccccc21	0.751% and -1.88%
COc1ccc(N(CC(=O)Nc2ccc(C)cc2C)S(C)(=O)=O)cc1Cl	3.17%
CC(C)c1ccc(OCC(O)CN2CCN(Cc3ccc4c(c3)OCO4)CC2)cc1 (stereo not shown)	-11.6%
COc1cccc(NC(=O)c2cccc(F)c2)c1	-2.03%
O=C(c1cc2ccccc2cc1O)N1CCCCC1	-2.04%
Cc1ccc(CC(=O)Nc2ccc(S(=O)(=O)NC(C)(C)C)cc2)cc1	-4.33%
O=C1NC(=O)N(c2ccccc2)C(=O)/C1=C\Nc1ccc2[nH]c(O)nc2c1	2.36%
O=C(Nc1ccc(S(=O)(=O)N2CCCCCC2)cc1)C(F)(F)F	2.85%
COc1ccc(N(CC(O)CN2CCC(C)CC2)S(=O)(=O)c2ccc(C)cc2)cc1 (stereo not shown)	-0.63%
CCN(CC)C(=O)c1ccc(COc2ccccc2Cl)o1	2.05%
Cc1cc(C)c(Cn2c3ccccc3c3cnn(CC(=O)N4CCOCC4)c(=O)c32)c(C)c1	-3.35%
CCOc1ccccc1C(=O)Nc1nnc(COC)s1	-1.52%
CC(C)NC(=O)c1cn(C2CCCC2)c(=O)c2c1c1ccccc1n2C	-5.27%
COCCCNC(=O)C1CCN(c2nnc(C)c3c(C)n(-c4ccc(C)cc4)nc23)CC1	0.361%
CCOc1ccc(-c2[nH]c3c(C(=O)OC)cnn3c2NC2CCCCC2)cc1OC	-0.519%
COc1ccc(/C=N/n2c(S)nnc2C(F)(F)F)cc1O	-3.04%
O=C(c1ccc(NS(=O)(=O)c2cccc(F)c2)cc1)N1CCCC1	4.42%
CCN(CC)CCSCCOC(=O)c1oc2ccccc2c1C	4.01%

SMILES	% Inhibition @ 10 uM
Clc1cccc(CN2CCc3c([nH]c4ccccc34)C2)c1Cl	-3.13%
C/C(O)=C\c1nc2ccccc2nc1O	5.48%
COc1cccc(/C(O)=C/C=N/c2ccccc2OC)c1	2.44%
Cc1ccc(NS(=O)(=O)c2ccc(F)cc2)c(NS(=O)(=O)c2ccc(F)cc2)c1	0.331%
Cc1ccnc(N2C(=O)c3ccc(C(=O)O)cc3C2=O)c1	-0.173%
C=CCNc1oc(Cc2cccc3ccccc23)nc1C#N	5.18%
CC(C)NC(=O)N1CCN(c2ccncc2S(=O)(=O)N2CCOCC2)CC1	-1.51%
O=C(CN1C(=O)c2ccccc2S1(=O)=O)NCC1CCCO1 (stereo not shown)	-6.49%
C=CCSc1nc(N)c(C#N)c(CC)c1C#N	65.5%
CC(=O)N(c1ccc2oc3c(c2c1)CCCC3)S(=O)(=O)c1ccc(C)cc1	-7.69%
O=S(=O)(c1cccc(C(F)(F)F)c1)N1CCC(N2CCCCC2)CC1	1%
Cc1nn(C)c(C)c1CN(C)C(=O)c1cc2nc(-c3ccccc3)cc(C(F)(F)F)n2n1	1.02%
O=C(Nc1nc2ccccc2[nH]1)c1ccccc1F	2.85%
CCC(C)[C@H](NC(=O)c1cccc(CN)c1)C(=O)N[C@@H](CCc1ccccc1)C(=O)CNS(=O)(=O)c1ccc2oc3ccccc3c2c1 (stereo partly shown)	7.72%
CCOc1ccccc1N1CCN(Cc2ccc(OC)c(Br)c2)CC1	-6.36%
O=C(Nc1ccc(Br)cc1C(=O)O)c1ccc(N2C(=O)c3ccccc3C2=O)cc1	8.26%
COC(=O)C1=C(C)N(C)C(C)=C(C(=O)OC)C1c1ccc(OCc2ccccc2)cc1	6.12%
C=C(C)CNC(=S)Nc1ccccc1	-1.05%
N#Cc1c(-c2cccs2)cc(-c2cccnc2)nc1N	-1.33%
COc1cc(C2Nc3cccc4cccc(c34)N2)cc(OC)c1O	-1.37%
Cn1c(=O)cc2c3c(c(N)ccc31)C(=O)c1ccccc1-2	-8.01%
Cc1cc(C)c(OCC(=O)N(Cc2ccccc2)C2CCS(=O)(=O)C2)c(C)c1 (stereo not shown)	0.812%
CC1CCc2c(sc(NC(=O)C(C)Oc3ccccc3)c2C(N)=O)C1 (stereo not shown)	-12.4%
CCOc1ccc(C2C3=C(O)CCCC3=Nc3nc4ccccc4n32)cc1OC (stereo not shown)	-1.62%
COc1cccc(/C=C/c2nc(C#N)c(NCCCN(C)C)o2)c1	0.685%

SMILES	% Inhibition @ 10 uM
Cc1ccc(N2CCN(Cc3coc4c(Cl)cc(Cl)cc4c3=O)CC2)cc1	-0.0648%
CN1CCN(C(=O)c2cnn3c(C(F)(F)F)cc(-c4ccc(Br)cc4)nc23)CC1	-2.16%
COc1ccc(C(=O)CSc2nc(N)cc(O)n2)cc1C	-1.6%
Cn1c(NCCCO)nc2c1c(=O)n(Cc1ccccc1F)c(=O)n2C	0.279%
COc1ccc(-c2cc(-c3ccc(C)cc3)nc(N3CCOCC3)n2)cc1	1.04%
Cc1cc(O)c2ccc(Cl)cc2n1	8.97%
COc1ccc(CC(=O)Nc2sc3c(c2C(N)=O)CCCCC3)cc1OC	57%
c1ccc(-c2ncnc(-c3ccccc3)n2)cc1	18.3%
CCCCOc1ccc(C2C(C#N)=C(N)Oc3[nH]nc(CCC)c32)cc1OC (stereo not shown)	-0.988%
Cn1c(=O)c2ncn(CC(=O)Nc3cc(C(F)(F)F)ccc3N3CCOCC3)c2n(C)c1=O	-1.43%
O=C(O)c1ccc(-c2nc3cc(Cl)c(Cl)cc3[nH]2)cc1	-9.31%
Nc1cccc(C(=O)Nc2cccc(S(=O)(=O)CCO)c2)c1	-6.21%
O=C(C#Cc1ccccc1)C#Cc1ccccc1	-8.2%
Cc1ccc2c(CNCc3ccc(OC(C)C)cc3)c(C(=O)O)n(Cc3ccc(F)cc3)c2c1	1.53%
COc1ccc(C(=O)c2cc(OC)c(OC)cc2C(=O)O)cc1OC	4.98%
CCc1nc2sc3c(c2c2nnnn12)CCCC3	-2.59%
O=C(/C=C/c1ccco1)NC(=S)N1CCCCCC1	-3.48%
CC(C)(C)c1ccc(C(=O)NCCCNC2=NS(=O)(=O)c3ccccc32)cc1	0.146%
N#CCCN(C(=O)Nc1ccccc1)c1ccccc1	5.63%
CCCC[C@@H](/C=C/S(=O)(=O)c1ccccc1)NC(=O)[C@@H](N)Cc1cc(I)c(O)c(I)c1	1.7%
Cc1cc(O)c(C2=NCCSC(c3cc(Cl)cc(Cl)c3O)C2)c(=O)o1 (stereo not shown)	-0.0372%
Cc1ccc(NC(=O)CN2CCN(CC#N)CC2)cc1	3.29%
CCOC(=O)c1c(C)[nH]c(C)c1S(=O)(=O)NCC(=O)N1CCN(C)CC1	4.39%
CCOP(=S)(OCC)C(O)c1ccccc1 (stereo not shown)	-1.82%
Cc1nc2c(c(C)nn2C(C)(C)C)c(C)c1CCC(=O)O	2.39%

SMILES	% Inhibition @ 10 uM
CCCN1CCC(N(C)CCc2ccccc2)CC1	0.472%
COc1ccc(Br)cc1CNC(=O)c1c(C)nc2ccccn2c1=O	0.0882%
Cc1cc(-c2ccccc2)c2nncn2n1	3.36%
Cc1sc2ncn(CC(=O)NCCCN3CCOCC3)c(=O)c2c1S(=O)(=O)N1CCOCC1	2.84%
O=C(O)c1c(CNCCN2CCOCC2)c2ccccc2n1Cc1ccc(F)cc1Cl	-6.95%
CCc1ccc(C2c3c(oc4ccc(F)cc4c3=O)C(=O)N2c2nc(C)c(C)s2)cc1 (stereo not shown)	2.1%
Nc1nn(-c2ccccc2)nc1C(=O)OCc1cc2c(cc1Br)OCO2	-5.53%
C=CCN1C(=O)NC2(O)C(=O)c3ccccc3C12O (stereo not shown)	0.121%
CCN1C(=O)S/C(=C/c2c(OC)cc(OC)cc2OC)C1=O	-1.22%
CCOc1ccccc1CNC(=O)c1cc2oc3ccccc3c2n1C	-1.6%
Cc1cccc(NCc2nc3ccccc3n2C)c1	-6.88%
O=C(C1CCN(c2ncnc3c2sc2cccc(F)c23)CC1)N1CCCC1	-3.57%
OC(COCc1ccccc1)CN1CCN(c2ccc(F)cc2)CC1 (stereo not shown)	0.565%
O=C(CSC(=S)N1CCCC1)c1ccccc1	-0.192%
Cc1ccc(NS(=O)(=O)c2cc(Cl)ccc2Cl)cc1Cl	0.135%
CCOc1ccc(/C=C2\C(=O)ON=C2c2ccc(Cl)cc2)c(OCC)c1	-0.386%
O=C1CC(c2ccc3c(c2)OCO3)C2=C(CC(c3ccc(F)cc3)CC2=O)N1 (stereo not shown)	-2.24%
Cc1ccc(Cn2c(C)c(CNCCc3ccccc3Cl)c(C(=O)O)c2C)cc1	-3.67%
O=C(NCCc1ccc(Cl)cc1)c1cc(-c2cccnc2)nc2ccccc12	-0.519%
Cc1cc2nc3n(c2cc1C)CCN3	0.392%
COCc1cc(C)nc2sc(C(=O)NCc3ccccc3)c(-n3cccc3)c12	-4.35%
Cc1ccc2nsnc2c1S(=O)(=O)N1CCOCC1	-5.01%
Cc1cc2nc(COc3ccc(Cl)cc3)cc(=O)n2o1	-2.19%
O=C(c1ccccc1)c1ccc(Oc2ccc(C(=O)O)c(C(=O)O)c2)cc1	-0.128%
CC(=O)NS(=O)(=O)c1ccc(NC(=O)[C@@H]2CCCC[C@@H]2C(=O)O)cc1	-4.43%
